Test results taken from PubChem BioAssay AID504937 (National Center for Advancing Translational Sciences (NCATS), 2011).
The campaign covered roughly 340,000 compounds. About 20 (0.006%) were called active. Inconclusive means that the source gave no clear call. Such entries were picked first, then a sample of the others. The call rests on the fitted dose curve; in most records, active means well fitted inhibition curve with a large enough effect; inconclusive means small, poorly fitted or top-dose-only effect; inactive means no such curve, though single readings can be large or run the other way. Potencies of inconclusive entries are doubtful fits and often do not repeat.

Each molecule was assayed against Sphingomyelin phosphodiesterase (Homo sapiens) (UniProt P17405) (assay: Inhibitors of Secretory Acid Sphingomyelinase (S-ASM): qHTS). Details: placental ASM, HMU-PC fluorogenic substrate (series up to 57.5 µM), 60 min.
How it was run: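 Fluorescence read-out (Ex 386 nm, Em 447 nm) after stopping the reaction at pH 10. Enzyme: ASM from human placenta; substrate HMU-PC0, 9 uM final; 60 min, 37 °C. Compound preincubation 10 min, ambient temperature.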
Potency means the concentration at half of the fitted maximal effect; tags describe the fitted curve by direction and shape.

Sequence of UniProt P17405 (P17405 whole entry, looked up): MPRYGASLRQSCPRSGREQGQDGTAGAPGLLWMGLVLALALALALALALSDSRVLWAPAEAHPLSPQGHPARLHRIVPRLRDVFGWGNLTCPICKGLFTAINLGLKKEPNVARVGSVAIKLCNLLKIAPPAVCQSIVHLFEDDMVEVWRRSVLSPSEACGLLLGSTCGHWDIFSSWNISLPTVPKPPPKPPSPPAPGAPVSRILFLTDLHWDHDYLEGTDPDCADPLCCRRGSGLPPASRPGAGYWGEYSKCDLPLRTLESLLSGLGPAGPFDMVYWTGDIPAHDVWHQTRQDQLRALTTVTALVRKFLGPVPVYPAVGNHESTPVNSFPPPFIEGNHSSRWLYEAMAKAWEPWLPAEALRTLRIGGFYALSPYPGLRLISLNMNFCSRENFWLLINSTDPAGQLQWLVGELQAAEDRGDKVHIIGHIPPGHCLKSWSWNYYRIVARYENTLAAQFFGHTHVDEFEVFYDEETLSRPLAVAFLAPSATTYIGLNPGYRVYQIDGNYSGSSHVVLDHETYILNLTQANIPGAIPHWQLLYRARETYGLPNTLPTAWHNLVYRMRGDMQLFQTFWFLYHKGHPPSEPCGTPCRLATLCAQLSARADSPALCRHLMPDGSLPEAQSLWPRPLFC

SMILES	Potency
CC(=O)Nc1cccc(Nc2nc(-c3cccs3)nc3ccccc23)c1	inconclusive: 224 µM [inhibitor, partial curve, poor fit]
C=CCOc1ccc(C(c2c(C(=O)O)[nH]c3ccccc23)c2c(C(=O)O)[nH]c3ccccc23)cc1	inconclusive: 44.7 µM [inhibitor, partial curve, poor fit]
Cc1ccc(C)c(NC(=O)CCc2ccc(C)o2)c1	inactive
COc1ccc(OC)c(NC(=O)CC2SC(=Nc3ccccc3)N(CCc3ccccn3)C2=O)c1 (centres undefined)	inconclusive: 112 µM [inhibitor, partial curve, poor fit]
O=C(Sc1ccc(Cl)cc1)c1ccccn1	inactive
CCC(=O)c1ccc(OCC(O)CN2CCN(C(c3ccccc3)c3ccccc3)CC2)cc1 (centres undefined)	inactive
COc1ccc(NCC(=O)N/N=C/c2cc([N+](=O)[O-])ccc2N2CCCC2)cc1	inconclusive: 316 µM [inhibitor, partial curve, poor fit]
COc1ccc(/C=N/NC(=O)c2cc3c(OC)ccc(OC)c3[nH]2)cc1O	inconclusive: 79.4 µM [inhibitor, partial curve, poor fit]
COC(=O)c1cc2c(N)c(C(=O)c3ccc(Cl)cc3)sc2nc1C(OC)OC	inconclusive: 282 µM [inhibitor, partial curve, poor fit]
O=C(COC(=O)COc1ccccc1Cc1ccccc1)Nc1cccnc1Cl	inconclusive: 631 µM [inhibitor, partial curve, poor fit]
CCN(CC)c1ccc(/C=C(/C#N)c2nc3ccc(C)cc3[nH]2)c(OC(C)C)c1	inconclusive: 158 µM [inhibitor, partial curve]
C[C@@H]1CN([C@H](C)CO)C(=O)c2cc(NC(=O)Nc3ccc(F)cc3)ccc2O[C@H]1CN(C)C(=O)Nc1ccc(C(F)(F)F)cc1	inconclusive: 89.1 µM [inhibitor, single point]
COc1ccc(-c2cc(=O)c3ccccc3s2)cc1	inactive
COc1cc(/C=C2/SC(=S)N(CC3CCCO3)C2=O)ccc1O (centres undefined)	inconclusive: 100 µM [inhibitor, single point]
O=C(Cn1cc(C(=O)c2cccs2)c2ccccc21)NCc1cccs1	inconclusive: 100 µM [inhibitor, partial curve, poor fit]
C/C(=N\NC(=O)COc1cc(C)cc(C)c1)c1cccc(NC(=O)C2CCC2)c1	inconclusive: 89.1 µM [inhibitor, partial curve, poor fit]
O=[N+]([O-])c1ccc(/C=N/Nc2ccc3ccccc3c2)o1	inconclusive: 89.1 µM [inhibitor, single point]
CCOC(=O)[C@H]1[C@H]2COc3cc(OC)ccc3[C@@H]2N2C(=O)N(c3cccc(Cl)c3)C(=O)[C@@]12C	inconclusive: 224 µM [inhibitor, partial curve, poor fit]
C=C(C)COc1ccc(-c2nc(N)ncc2Oc2ccc(OC)cc2)c(O)c1	inconclusive: 251 µM [inhibitor, partial curve, poor fit]
CCN(CC)S(=O)(=O)c1cc(NS(=O)(=O)c2c(Cl)cccc2Cl)ccc1C	inconclusive: 251 µM [inhibitor, partial curve, poor fit]

SMILES	Potency
Cc1cc2cc(C(=O)N3CCc4c([nH]c5ccccc45)C3c3ccccn3)ccc2o1 (centres undefined)	inconclusive: 89.1 µM [inhibitor, partial curve, poor fit]
CCOC(=O)c1c(C)[nH]c(O)c1C=Nc1ccc(Cl)cc1	inconclusive: 89.1 µM [inhibitor, partial curve, poor fit]
O=C1c2ccccc2OC2(C=Cc3ccccc3O2)N1Cc1ccccc1 (centres undefined)	inconclusive: 447 µM [inhibitor, partial curve, poor fit]
CCN(CC)c1ccc(C=C2SC(=S)NC2=O)cc1	inconclusive: 126 µM [inhibitor, partial curve, poor fit]
O=C(Nc1cccc2ncccc12)c1ccc(-c2ccc(Cl)cc2Cl)o1	inconclusive: 100 µM [inhibitor, partial curve, poor fit]
O=C(CSc1nc(Nc2ccccc2)nc(N2CCOCC2)n1)Nc1cc(Cl)ccc1O	inconclusive: 100 µM [inhibitor, single point]
COc1cc(NC(=O)c2cccs2)c(C(=O)OCC(=O)c2cc(C)n(-c3ccc(F)cc3)c2C)cc1OC	inconclusive: 22.4 µM [inhibitor, partial curve, poor fit]
Cc1ccc(O)c(N=CC2=C(O)c3ccccc3C2=O)c1	inconclusive: 447 µM [inhibitor, partial curve, poor fit]
CCOC(=O)c1nnn(-c2nonc2N)c1COc1cc(C)c(Cl)c(C)c1	inconclusive: 224 µM [inhibitor, partial curve, poor fit]
Cc1ccc(O)c(C(=O)CC(=O)c2ccccc2Cl)c1	inconclusive: 200 µM [inhibitor, partial curve, poor fit]
CC(=O)N1c2ccc(S(=O)(=O)N3CCC(C(=O)N4CCN(c5ccc(Cl)cc5)CC4)CC3)cc2CC1C (centres undefined)	inconclusive: 708 µM [inhibitor, partial curve, poor fit]
CCN(CC)c1ccc(NC(=S)NC(=O)Cc2ccccc2)cc1	inactive
O=C(Cc1ccc(Br)cc1)N1CCN(C(=O)c2ccco2)CC1	inactive
CCC1C(=O)CC(c2ccco2)NC1c1ccco1 (centres undefined)	inactive
CCOc1ccc(NC2=C(Cl)C(=O)N(Cc3ccccc3)C2=O)cc1	inconclusive: 112 µM [inhibitor, single point]
O=C(N/N=C/c1ccc(Cl)cc1Cl)c1cccc(F)c1	inactive
C=CCC1NS(=O)(=O)OC(CCc2ccccc2)C1O (centres undefined)	inactive
O=C(CSc1ccc(-c2ccco2)nn1)NCc1ccc(Cl)cc1	inactive
COC(=O)CN1C(=O)S/C(=C/c2ccc(N3CCCCC3)o2)C1=O	inconclusive: 89.1 µM [inhibitor, single point]
